Converted amounts (≈) assume the structure as drawn. Like-named read-outs stand apart in the source and are kept apart here.
Experiments:
[1] = CLND kinetic solubility assay; assay type: physicochemical; conditions: pH 7.4, aqueous buffer, kinetic from dmso stock, Measured, read-out: Aq Sol
Method: 5 µL of 10 mM DMSO stock solution was diluted to 100 µL with pH 7.4 phosphate buffered saline, equilibrated for 1 hour at room temperature, filtered through Millipore MultiscreenHTS-PCF filter plates (MSSL BPC). The filtrate was quantified by suitably calibrated flow injection Chemi-Luminescent Nitrogen Detection.

[2] = test system: T. brucei brucei parasites (Lister 427 strain); assay: Dose response growth inhibition assay (resazurin, 72 h); assay type: cell-based; conditions: Trypanosoma brucei, read-out: Tbb pEC50 (converted)
Method: Greiner sterile black clear bottom 384-well assay plates were pre-dispensing with 200 nL of compound in each well, from master plates at 1 mM (100% DMSO) containing selection from the GSK compound collection. Controls of 0% response (control 1, 200 nL of 100%DMSO) and 100% response (control 2, 200 nL of 1 mM pentamidine) were included in each assay plate in columns 6 and 18, respectively. Plates containing 200 nL of 100% DMSO were included randomly in the assay, to assess quality through all process. […] After this period, 10 µL of 200 µM resazurin solution in prewarmed HMI-9 were added to each well, and plates were allowed to incubate 2 hours more prior fluorescence reading in a Wallac EnVision Multilabel Plate Reader (Perkin-Elmer). Raw fluorescent data from the Envision plate reader were uploaded into GSK HTS database (ActivityBase). Activity of each well was normalized as a percentage of inhibition per-plate basis using the following equation: [drawing 1]
For dose-response experiments, serial compound dilutions of selected hits from the primary campaign were plotted against compound concentration. Dose response master plates were prepared by 3-fold dilutions (starting with 10 mM DMSO stock solutions), providing 11 concentrations. From these master plates, 200 nL per well was stamped in final assay plates, including the same controls describe in the primary single shot assay. Compounds were dispensed as serial dilution curve format, with 11 points at 3-fold dilution and 40 µM as starting top concentration (n = 2). Growth inhibition assay was performed as described in previous assay.
A 4-parameter equation describing a sigmoidal dose-response curve was then fitted with an adjustable baseline using ActivityBase XE Runner software. Fitting of dose-response curves and EC50 determination were normalized as percentage of inhibition based on controls. The curve-fit model was based on a 4-parameter equation: [drawing 2]
Trypanosome cell culture. […]

[3] = test system: HepG2 cells; assay: Cytotoxicity assay (Cell Titer Glo, 48 h); conditions: HepG2 cytotoxicity
Method: This assay was used as selectivity assay, and selected hits from the primary were test in dose response concentration against HepG2 in order to identify the level of host cell cytotoxicity. Dose response starting at 10 mM and with 3-fold dilutions for 11 points, were made in 1,536-well master plates. 50 nL per well from them were stamped in final assay plates. The human biological samples were sourced ethically and their research use was in accord with the terms of informed consent.
Cell density was adjusted to 60,000 cells/mL as working concentration in prewarmed Eagle's MEM medium. Seeding density was be checked to ensure that new monolayers are not more than ∼ 50% confluent at the time of seeding (typically 3,000 cells per well), before completing preparation of plates. […] Viability was determined by Cell Titer Glo Kit (Promega) according to manufacturer's instructions: briefly, reconstituted Cell Titer Buffer was equilibrated to room temperature prior its use and 5 µL per well were dispensed with a Multidrop Combi Reagent Dispenser. Contents were mixed on a plate orbital shaker and incubated for 10 min at room temperature, to allow the signal to stabilize before luminescence reading on ViewLux Plate Reader (Perkin-Elmer).
Raw Luminescence data from the ViewLux reader were uploaded into GSK HTS database (ActivityBase). […]

[4] = target: T1, Human Serum Albumin (HSA) (Homo sapiens, UniProt P02768); assay: Protein binding assay (HPLC stationary phase), HSA; assay type: in vitro ADME; conditions: Measured
T1 construct: purchased Chiral Technologies, France
Method: Chemically bonded Human Serum Albumin (HSA) and Alpha-1-acidglycoprotein HPLC stationary phases (Chiral Technologies, France) were used for measuring compounds' binding to plasma proteins, applying linear gradient elution up to 30% iso-propanol. The run time was 6 min, including the re-equilibration of the stationary phases with the 50 mM pH7.4 ammonium acetate buffer. The obtained gradient retention times were standardised using a calibration set of mixtures as described in the references. The average standard error of the assay depends on the binding strength and kinetics of the compounds.

[5] = ChromlogD assay
Method: The Chromatographic Hydrophobicity Index (CHI)[22] values were measured using reversed phase HPLC column (Luna C18 (2), Phenomenex, UK) with a fast acetonitrile gradient at starting mobile phase of pH = 7.4. CHI values are derived directly from the gradient retention times by using a calibration line obtained for standard compounds. The CHI value approximates to the volume % organic concentration when the compound elutes. […] The average error of the assay is ±3 CHI unit or ±0.25 ChromlogD.

[6] = target: Cytochrome P450 (CYP450) (Homo sapiens, UniProt P08684); assay: Cytochrome P450 inhibition profile; assay type: in vitro ADME; conditions: Measured
Method: The P450 inhibition profile of the inhibitors was determined as previously described.

[7] = CYP3A4, VR substrate, read-out: CYP3A4VR pXC50 (converted)

In the case of `CCn1c(-c2nonc2N)nc2cncc(C(=O)N3CC[C@H](N)C3)c21` [NEU-0001883], the solubility kinetic at 1 h [1] was at least 226 µM, the EC50 [2] was 0.794 µM and the “HepG2 pTC50” value [3] was under 4.

In the case of `Cn1cc(-c2cnc3[nH]cc(-c4cccc(C#N)c4)c3c2)cn1` [NEU-0001207], the HSA % binding [4] was 95.36%.

For `Nc1nccc(-c2c(-c3ccc(F)cc3)ncn2C2CCNCC2)n1` [NEU-0001231], the EC50 ([2]; T. b. brucei growth inhibition) was 0.398 µM, the PFI [5] was 4.12 and the “HepG2 pTC50” value [3] was under 4.

`CC(=O)Nc1nc(C)c(-c2cnc(Cl)c(NS(=O)(=O)c3ccccc3)c2)s1` [NEU-0001233] gave an HSA % binding [4] of 96.57%, a solubility kinetic at 1 h ([1]; phosphate buffered saline) of at least 308 µM and an IC50 [6, 7] of 25.1 µM. The PFI [5] was 6.43.

Compound `O=C(Nc1n[nH]c2nnc(-c3cccnc3)cc12)C1CC1` [NEU-0001228] has an HSA % binding [4] of 68.79%, a solubility kinetic at 1 h ([1]; phosphate buffered saline) of 58 µM (≈ 16.3 µg/mL) and an IC50 ([6]; CYP3A4, VG substrate, read-out: CYP3A4VG pXC50 (converted)) of 100 µM. It also gave an IC50 [6, 7] of 25.1 µM, an EC50 ([2]; T. b. brucei growth inhibition) of 1 µM and a PFI [5] of 4.64.
